Experimental data: PubChem BioAssay AID1345082 (National Center for Advancing Translational Sciences (NCATS), 2018)
Out of some 94,000 compounds screened, about 4,000 (4.3%) were called active. The inconclusive results got no clear call from the source; some entries with a clear call stand among them for comparison. Calls come from the whole dose curve; as a rule, active = well fitted inhibition curve with a large enough effect; inconclusive = small, poorly fitted or top-dose-only effect; inactive = no such curve, though single readings can be large or run the other way. Potencies beside an inconclusive call are fits to weak or partial responses and may not hold up.

Assay: Cytotoxic Profiling in NIH 3T3 Cell Line of Diverse Libraries Using Quantitative High-Throughput Screening; note: nearly all actives have a fitted effect of over 55% in size
Settings: NIH 3T3 viability, CellTiter-Glo ATP luminescence, 48-72 h; series mostly up to 96.7 µM
Method in brief: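 Cytotoxicity was measured by CellTiter-Glo ATP luminescence after 48 or 72 h compound exposure at 37 °C. Mouse NIH 3T3 fibroblasts were seeded at 400 cells/well and dosed by 23 nL pin transfer.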
Potency is the fitted concentration of half-maximal effect; tags give direction and shape of the fitted curve.

SMILES	Potency
O=C(NCc1ccccc1Cl)c1ccc2nnc(-c3cc(C(F)(F)F)cc(C(F)(F)F)c3)n2c1	inconclusive: 11.2 µM [inhibitor, full curve]
CN1[C@@H](CCC(=O)Nc2ccccc2)CNC(=O)[C@@H]2[C@H]1CCN2Cc1ccc(C(F)(F)F)cc1	inconclusive: 50.1 µM [inhibitor, partial curve, poor fit]
COC(=O)C1=C(C)N=C2SC=C(CC(=O)NCc3cccc(F)c3)N2C1c1cccc(OC)c1 (stereo unspecified)	inconclusive: 50.1 µM [inhibitor, partial curve, poor fit]
O=C1CCN(Cc2ccc(C(F)(F)F)cc2)CCCC(c2nc(-c3cnccn3)no2)CCN1 (stereo unspecified)	inconclusive: 44.7 µM [inhibitor, partial curve, poor fit]
O=C(c1ccsc1)N1CCC2(CC1)NC(=O)N(Cc1ccccc1)C2=O	inconclusive: 50.1 µM [inhibitor, partial curve, poor fit]
COc1ccccc1-c1noc(-c2nc(-c3ccc4c(c3)OCO4)no2)n1	inactive
CC1(COc2ccccc2)COc2ccc(C(=O)NCCc3ccccn3)cc2N1 (stereo unspecified)	inconclusive: 56.2 µM [inhibitor, partial curve, poor fit]
O=C(NCc1cccnc1)c1ccc2oc(-c3ccc(C(F)(F)F)cc3)nc2c1	inconclusive: 20 µM [inhibitor, full curve, poor fit]
COc1ccc(N2CCN(C(=O)C3CC(=O)N(c4n[nH]c5cccc(F)c45)C3)CC2)cc1 (stereo unspecified)	inactive
Cc1ccc(C(=O)N2CCC3(CC2)N(C)C(=O)CS3(=O)=O)c(C)c1	inactive
c1ccc(Oc2ccccc2-c2cc(-c3cn[nH]c3)c3cncn3c2)cc1	inconclusive: 56.2 µM [inhibitor, partial curve, poor fit]
COc1cccc(-c2cccc(CN3CCCC(C)(NC(C)=O)C3)c2)c1 (stereo unspecified)	inconclusive: 63.1 µM [inhibitor, partial curve, poor fit]
CC(=O)Nc1ccc(S(=O)(=O)NC[C@@H]2C=C(C)[C@H](CC(=O)N3CCCC3)C[C@H]2C(C)C)cc1	inconclusive: 50.1 µM [inhibitor, partial curve, poor fit]
CSc1ccc(C(=O)N2CC(=O)N(CC3CC3)CC(C)(C)C2)cc1	inconclusive: 79.4 µM [inhibitor, partial curve, poor fit]
CCN1CCCN(C(=O)Nc2ccc(C)c(C)c2)CC12CCOCC2	inactive
COc1ccc(NC(=O)[C@@H]2C[C@@H](c3ccc(F)cc3)N(Cc3ccccc3)C2)cc1	inactive
